# From the supplement of paper PMC9446081
# Among all 39,000 compounds or so, about 220 (0.56%) showed activity. This is one part of the list.
# System: Escherichia coli K-12 BW25113
# Test: relative growth (OD600 normalised to plate interquartile mean) (fraction); higher = less growth inhibition, active = 0.2 or less
# Settings: 50 µM; LB; incubation time: overnight (16-24 h)
# 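Also: static incubation at 37 °C against the wild-type strain, values averaged over two biological replicates.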
row,SMILES,relative growth
1,CC(C)NC(=O)N(C)C[C@H]1Oc2ccc(NC(=O)Cn3cnnn3)cc2C(=O)N([C@H](C)CO)C[C@H]1C,inactive: 1
2,C[C@@H]1CN([C@H](C)CO)S(=O)(=O)c2ccc(C#Cc3ccncc3)cc2O[C@H]1CN(C)C(=O)C1CCOCC1,inactive: 0.992
3,COc1ccc(CN(C)C[C@H]2OCCCC[C@@H](C)Oc3ccc(NC(=O)NC(C)C)cc3C(=O)N([C@H](C)CO)C[C@@H]2C)cc1,inactive: 0.987
4,COc1ccc(NC(=O)N(C)C[C@@H]2Oc3c(NC(=O)C4CCOCC4)cccc3C(=O)N([C@H](C)CO)C[C@H]2C)cc1,inactive: 1
5,Cc1noc(C)c1S(=O)(=O)N(C)C[C@@H]1Oc2ccc(NS(=O)(=O)c3cccs3)cc2CC(=O)N([C@H](C)CO)C[C@@H]1C,inactive: 1
6,C[C@H](CO)N1C[C@H](C)[C@H](CN(C)S(C)(=O)=O)Oc2ccc(NC(=O)Nc3ccc4c(c3)OCO4)cc2C1=O,inactive: 1
7,C[C@@H]1CN([C@H](C)CO)C(=O)CCCn2cc(nn2)CO[C@H]1CN(C)S(=O)(=O)c1cccc(C#N)c1,inactive: 0.949
8,CC(C)NC(=O)N[C@H]1C=C[C@@H](CC(=O)NCCN2CCCC2)O[C@H]1CO,inactive: 0.983
9,Cc1noc(C)c1NC(=O)N(C)C[C@@H]1Oc2ncc(C#Cc3ccccc3)cc2C(=O)N([C@H](C)CO)C[C@@H]1C,inactive: 1.03
10,COC(=O)c1c2oc(c1C(=O)OC)C(=O)N[C@H](Cc1ccccc1)Cn1cc(nn1)[C@H](Cc1ccccc1)NC(=O)N[C@H](CO)CC2,inactive: 0.948
11,COc1ccc(S(=O)(=O)N(C)C[C@H]2Oc3c(NC(=O)C4CC4)cccc3C(=O)N([C@@H](C)CO)C[C@H]2C)cc1,inactive: 1
12,Cn1nc2c(c1N)CCC2,inactive: 0.941
13,C[C@@H]1CCCCO[C@@H](CN(C)CC2CCCCC2)[C@@H](C)CN([C@H](C)CO)C(=O)c2cc(NS(=O)(=O)c3cccs3)ccc2O1,inactive: 0.977
14,C[C@@H]1CN([C@H](C)CO)C(=O)Cc2cc(NC(=O)CCC(F)(F)F)ccc2O[C@@H]1CN(C)Cc1ccc(C(F)(F)F)cc1,inactive: 1
15,O=C(O)c1ccccc1-c1ccco1,inactive: 0.975
16,C[C@H]1CCCCO[C@@H](CN(C)C(=O)C2CCCCC2)[C@@H](C)CN([C@@H](C)CO)C(=O)c2cc(NC(=O)c3ccccc3)ccc2O1,inactive: 0.992
17,COc1ccc(S(=O)(=O)N(C)C[C@H]2Oc3c(NS(=O)(=O)c4ccc(C)cc4)cccc3C(=O)N([C@@H](C)CO)C[C@@H]2C)cc1,inactive: 1
18,C[C@@H]1CCCCO[C@@H](CN(C)C(=O)C2CCCCC2)[C@H](C)CN([C@@H](C)CO)C(=O)c2cc(NC(=O)CCC(F)(F)F)ccc2O1,inactive: 0.988
19,C[C@@H]1CCCCO[C@@H](CN(C)S(=O)(=O)c2ccc(F)cc2)[C@@H](C)CN([C@@H](C)CO)C(=O)c2cc(NC(=O)Cc3ccccc3)ccc2O1,inactive: 1.03
20,C[C@H]1CNC(=CC(=O)c2ccccc2)C(=O)N1,inactive: 1.02
21,Cc1nccn1CCC(=O)O,inactive: 0.988

row,SMILES,relative growth
1,COc1ccccc1CNC(=O)C[C@H]1CC[C@H]2[C@@H](COc3ccc(NC(=O)c4ccno4)cc3C(=O)N2C)O1,inactive: 0.989
2,CC(CN(C)C)CN1c2ccccc2Sc2ccccc21.O=C(O)C(O)C(O)C(=O)O (stereo not drawn),inactive: 0.971
3,Cc1ccc(F)cc1NC(=O)[C@@H](C)N,inactive: 1
4,C[C@@H]1CN([C@H](C)CO)C(=O)c2cccc(NC(=O)c3ccc(-c4nccs4)cc3)c2O[C@H]1CN(C)Cc1ccc(-c2ccccc2)cc1,inactive: 1.02
5,COc1ccc2c3c([nH]c2c1)[C@@H](CO)N(Cc1ccc(cc1)Cl)C[C@]13CCN(CC1)Cc1nccs1,inactive: 0.999
6,CCN(CC)CCNc1ccc(COc2ccccc2/C=C(C)/C=C/C(=O)NO)c2sc3ccccc3c(=O)c12,inactive: 1.02
7,C[C@@H]1CN([C@@H](C)CO)C(=O)c2cc(NC(=O)Nc3cccc4ccccc34)ccc2O[C@@H]1CN(C)Cc1ccc(Cl)c(Cl)c1,inactive: 1.03
8,C[C@H]1CN([C@@H](C)CO)C(=O)c2cc(NC(=O)Nc3cccc4ccccc34)ccc2O[C@H]1CN(C)C(=O)Nc1ccccc1,inactive: 0.91
9,Cn1cnc(S(=O)(=O)N2C[C@@H](O)COC[C@H]3O[C@@H](CC(=O)NCc4cccc(F)c4)CC[C@@H]32)c1,inactive: 0.998
10,CC(C)CS(=O)(=O)C1CN(S(C)(=O)=O)C1,inactive: 0.998
11,COc1ccc(NC(=O)Nc2ccc3c(c2)C(=O)N([C@@H](C)CO)C[C@@H](C)[C@@H](CN(C)Cc2ccc(Oc4ccccc4)cc2)O3)cc1,inactive: 0.994
12,C[C@@H]1CN([C@H](C)CO)C(=O)c2cc(NC(=O)C3CCCCC3)ccc2O[C@@H](C)CCCCO[C@@H]1CN(C)S(=O)(=O)c1ccccc1,inactive: 1.02
13,OC1(c2ccc(Cl)c(C(F)(F)F)c2)CCN(CCCC(c2ccc(F)cc2)c2ccc(F)cc2)CC1,inactive: 0.913
14,Cc1ccc(S(=O)(=O)Nc2ccc3c(c2)C(=O)N([C@H](C)CO)C[C@H](C)[C@@H](CN(C)S(=O)(=O)c2ccc(F)cc2)O3)cc1,inactive: 0.997
15,COc1ccc(NC(=O)Nc2ccc3c(c2)C(=O)N([C@@H](C)CO)C[C@@H](C)[C@@H](CN(C)C(=O)Nc2ccc(C(F)(F)F)cc2)O3)cc1,inactive: 1.02
16,C[C@@H]1CN([C@@H](C)CO)C(=O)CCCn2cc(nn2)CO[C@H]1CN(C)C(=O)C1CC1,inactive: 1.02
17,O=C(N1CCN(CCO)CC1)C(F)(F)F,inactive: 1.02
18,COc1ccc(CN(C)C[C@@H]2OCCCC[C@H](C)Oc3ccc(NC(=O)Nc4cccc5ccccc45)cc3C(=O)N([C@@H](C)CO)C[C@H]2C)cc1,inactive: 1
19,O=S(=O)(NCCCN(C/C=C/c1ccc(F)cc1)C/C=C/c1ccc(F)cc1)c1cccc2cnccc12,inactive: 0.905
20,COc1ccc(NC(=O)Nc2ccc3c(c2)C(=O)N([C@H](C)CO)C[C@H](C)[C@@H](CN(C)C(=O)Cc2ccccc2)OCCCC[C@H](C)O3)cc1,inactive: 0.999
21,COCC(=O)N(C)C[C@@H]1Oc2cc(C#CCC3CCCC3)ccc2S(=O)(=O)N([C@H](C)CO)C[C@@H]1C,inactive: 0.998

row,SMILES,relative growth
1,C[C@H]1CN([C@@H](C)CO)C(=O)Cc2cc(NS(=O)(=O)c3cccs3)ccc2O[C@@H]1CN(C)S(=O)(=O)c1cccs1,inactive: 0.998
2,Cc1noc(C)c1NC(=O)N(C)C[C@H]1Oc2ccc(NC(=O)C3CC3)cc2CC(=O)N([C@@H](C)CO)C[C@@H]1C,inactive: 0.994
3,O=C1C2CC3CC1CC(O)(C3)C2,inactive: 1.14
4,CCN1CCN(c2cc3c(cc2F)c(=O)c(C(=O)O)cn3C2CC2)CC1,active: 0.0449
5,O=C(C[C@@H]1CC[C@@H]2[C@H](COC[C@H](O)CN2S(=O)(=O)c2ccccc2)O1)NCc1ccc(-c2ccccc2)cc1,inactive: 1
6,C[C@@H]1CCCCO[C@@H](CN(C)S(=O)(=O)c2ccccc2)[C@@H](C)CN([C@@H](C)CO)C(=O)c2cc(NC(=O)c3ccccc3)ccc2O1,inactive: 1.04
7,C[C@@H]1CN([C@@H](C)CO)C(=O)c2cc(NC(=O)Cn3cnnn3)ccc2O[C@H]1CN(C)C(=O)Nc1cccc2ccccc12,inactive: 0.997
8,C[C@@H]1CN([C@@H](C)CO)C(=O)c2cc(NS(=O)(=O)c3cn(C)cn3)ccc2O[C@@H](C)CCCCO[C@H]1CN(C)Cc1ccc(C(F)(F)F)cc1,inactive: 0.987
9,COCC(=O)Nc1ccc2c(c1)C(=O)N(C)[C@@H]1CC[C@@H](CC(=O)NCc3ccccc3Cl)O[C@H]1CO2,inactive: 1.04
10,Cc1ccc(S(=O)(=O)Nc2ccc3c(c2)C(=O)N([C@@H](C)CO)C[C@H](C)[C@H](CN(C)C(=O)Cc2ccccc2)OCCCC[C@H](C)O3)cc1,inactive: 0.998
11,O=C(C[C@H]1C[C@@H]2c3cc(NC(=O)c4ccc5c(c4)OCO5)ccc3O[C@@H]2[C@@H](CO)O1)NCc1cccnc1,inactive: 0.994
12,CCCCCNC(=N)NN=Cc1c[nH]c2ccc(OC)cc12.O=C(O)C=CC(=O)O,inactive: 0.879
13,CO[C@H]1O[C@H](CO)[C@@H](OC(=O)Nc2cccc(F)c2)[C@H](OC(=O)Nc2ccccc2-c2ccccc2)[C@@H]1OC(=O)Nc1ccccc1-c1ccccc1,inactive: 1.04
14,C[C@@H]1CN([C@@H](C)CO)C(=O)c2cc(NS(=O)(=O)c3ccccc3)ccc2O[C@@H](C)CCCCO[C@H]1CN(C)C(=O)CCC(F)(F)F,inactive: 1
15,O=C1CSCCN1,inactive: 1.01
16,CCCN(C)C[C@H]1OCCCC[C@H](C)Oc2ccc(NC(=O)C3CCCCC3)cc2C(=O)N([C@@H](C)CO)C[C@H]1C,inactive: 0.99
17,CC1(C)[C@H]2CC[C@@]1(C)/C(=N/O)C2,inactive: 0.993
18,O=C(C[C@@H]1CC=CC[C@H](NC(=O)OCC2c3ccccc3-c3ccccc32)C(=O)O[C@@H](c2ccccc2)CNC1=O)N[C@@H](CO)Cc1ccccc1,inactive: 1.01
19,C[C@H](CO)N1C[C@H](C)[C@H](CN(C)Cc2ccc(Cl)c(Cl)c2)OCCCC[C@H](C)Oc2ccc(NC(=O)C3CCCCC3)cc2C1=O,inactive: 0.994
20,CC(C)(O)c1coc(S(=O)(=O)NC(=O)Nc2c3c(cc4c2CCC4)CCC3)c1,inactive: 1.01
21,COCCCN(C[C@]1(O)CC[C@H]2C3=CC=C4C[C@@H](O)CC[C@]4(C)[C@@H]3CC[C@@]21C)C(=O)O[C@H]1C[C@@H](C)CC[C@@H]1C(C)C,inactive: 1
